The labels stand for the following.
T1: UNK ZnF1-3 (human, UniProt Q9C0B0 31-174)
T1 sequence: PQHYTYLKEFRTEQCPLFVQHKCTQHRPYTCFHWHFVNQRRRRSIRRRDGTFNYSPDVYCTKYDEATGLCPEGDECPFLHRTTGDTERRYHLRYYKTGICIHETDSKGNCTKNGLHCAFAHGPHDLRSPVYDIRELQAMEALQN

B1: 38089502_38089622_476_5pUTR_ENSMUSG00000022812_ENSMUST00000023507|mouse|control|control (ssRNA)
RNA: GGGAGUUCUACAGUCCGACGAUCGGGGCUGCUCUGUGCGAGGCGCGCCGUCUGCGCAGCCGCCUAGCCCUUCCCCACUCCCCCUCCCCCUUCCUACUCGUCCUCCGCCUCCUUCCUCCCCCACCCAGCCCUUACACCGCCCAGCAACAGAGGAUUGAGCAUCA
B2: 117957435_117984873_1551_3pUTR_ENSG00000198162_ENST00000356554|human|control|control (ssRNA)
RNA: GGGAGUUCUACAGUCCGACGAUCCACUGCUUUAAUCUUGAAUAUCUCCUCUCCUGAUAGGUAAUAUGCUGCAAGUAGGCCUCCAAUAAAUCGAAUGUUGACUUCAAACACAGACACCUCUGAAUUCACACUGAAAUCAAGGUUCAACAGAGGAUUGAGCAUCA
B3: 135279348_135279468_1970_CDS_ENSG00000155561_ENST00000285968|human|control|control (ssRNA)
RNA: GGGAGUUCUACAGUCCGACGAUCUUCCAAUGACUGCCAGAGGGAAGCAGCAAUUUCAGGAGAUUUUCCAAAAGCUGCGAGUGUCUUCAGUAGCUCAGCUUUUAGGACAGGGGGAAUACUGCAUUGGAGGAGUCCCAGAAUCACCAACAGAGGAUUGAGCAUCA
B4: 15159152_15162069_1653_3pUTR_ENSG00000085721_ENST00000198767|human|control|control (ssRNA)
RNA: GGGAGUUCUACAGUCCGACGAUCGGUACUCCUAAUGACUGGCAGCAUCUGGCGAUUGUUCCUCUCAAUGAUGGUGUAGCAGAAGACGAGCUGGUACUUAUUUGUGAUUGCAGCAAAAAAGUUAACCACUGAGGGCAGGCAAAUCAACAGAGGAUUGAGCAUCA
B5: chr4:115894766:115894767:+_ENSMUSG00000028698_ENSMUST00000030464|mus_hu|mus_mus_mus_hu_True|1_18 (ssRNA)
RNA: GGGAGUUCUACAGUCCGACGAUCUUCCACACGGAAAUGUACUUCGGGUUUUCCAACGGCCAGUACCAGUCCGGCCAAACUACCCGAACAGGGUCCUCCCCCUCUCUCCUACAGAACUAAAGCACCCGCCCCCGAACCCCGAACCAACAGAGGAUUGAGCAUCA
B6: chr4:128986876:128986877:-_ENSMUSG00000057236_ENSMUST00000102598|mus_hu|FALSE|FALSE (ssRNA)
RNA: GGGAGUUCUACAGUCCGACGAUCCUGCUGGUGAAACAGGUCACCCAAAAUGGAGAUGGCAUCAAACUAGUGGUCAAGGACUAACUCCAUUUGCCACACUUGCAUGAUAUUGUCUUCUGAUACAGAACAAAUCACCCAAGGUUCCAACAGAGGAUUGAGCAUCA
B7: 74896617_74897821_1695_CDS_ENSG00000122882_ENST00000372979|human|control|control (ssRNA)
RNA: GGGAGUUCUACAGUCCGACGAUCUAAACAUUCAAAGUCUUCAUCAUCCAGAUCAUCAGAAUCUGACUCAUUAGGCCUUGGCCCUAAAAUCUUAUCAAAAUAAUUAAGAAAAGAAUCUGCAUCAAAAGUGAUUGGAGCCUCAGACAACAGAGGAUUGAGCAUCA
B8: chr6:35837335:35837336:-_ENSG00000096063_ENST00000361690|hu_hu|FALSE|FALSE (ssRNA)
RNA: GGGAGUUCUACAGUCCGACGAUCUUGCUCUUGUUCAUCUUCACAGGGUAUCUCUGCCCGAAUGCUUUCUUGAAGUUGGCUAAUGUGUUGUUCACUGAAUGACUGACCUACAGUUGAGGAAGACUGGCACACCAUGGUGUCUGACAACAGAGGAUUGAGCAUCA
B9: 56322392_56325103_1058_CDS_ENSG00000134852_ENST00000309964|human|control|control (ssRNA)
RNA: GGGAGUUCUACAGUCCGACGAUCUAGAAACAGAAACUUCCAUUCUAAACUAUGUCUAGAUGUAAACUCUUCAUUGGGUUCUUCAACAGUGCACAUUUCCUUGAUGAACUGAGGUGUAGCUAACCUGACAGUAGCUACAAAACACAACAGAGGAUUGAGCAUCA
B10: 43436322_43464990_2321_CDS_ENSG00000052841_ENST00000039989|human|control|control (ssRNA)
RNA: GGGAGUUCUACAGUCCGACGAUCUUCCAAAGGCCAUGCCUGUUGAAAUUCAUCCACCAAAGCCAGUAUUUCUUCUGACAUUUUGGUUUCAUCUGAAUUCUCCAUCUCAUCAGAACCAUUGCUCUCCUCAACCACCGUACCACUCAACAGAGGAUUGAGCAUCA
B11: chr3:39121231:39121232:+_ENSG00000114742_ENST00000302313|hu_mus|motif|central (ssRNA)
RNA: GGGAGUUCUACAGUCCGACGAUCAUUCGUAUCUUUGGUUAAUAUGUGUCGCUUGUCAUUUAGGAUGUGGCACUGAAUAAUACGGGCGCCCCCUUUAAUAACUUGGUCGGGCUGUGUGCAGAGGGGCGUUAUGGGGUUUGUACACAACAGAGGAUUGAGCAUCA
B12: chr2:90693216:90693217:+_ENSMUSG00000027282_ENSMUST00000136872|mus_mus|motif|central (ssRNA)
RNA: GGGAGUUCUACAGUCCGACGAUCCUCUUUGAUAACUCGGUCAAAGGAGGAUGAAUAUUCUUUUUGUACAGUUACAGAUCCGGACUCCUCAGGUUUCUCAGACUCCUGGUAAUACUGUAAGACUUUCCCAUGGACCACAGUUCCCAACAGAGGAUUGAGCAUCA
B13: chr4:82150701:82150702:-_ENSMUSG00000008575_ENSMUST00000064770|mus_hu|motif|central (ssRNA)
RNA: GGGAGUUCUACAGUCCGACGAUCUAAAACGCACUUUCCGGGAGAUGCCCAAGAAAAUCUUCGAGAAGCAAGAAUUUCAUCGGUUCAUUUUACAGUCAUCUGAGCCCCGCGAUGCGAUCAAUCAGGACGGGGCUCUGCGCUGGACAACAGAGGAUUGAGCAUCA
B14: chrX:69798090:69798091:-_ENSMUSG00000031343_ENSMUST00000055966|mus_mus|mus_mus_mus_hu_False|58_108 (ssRNA)
RNA: GGGAGUUCUACAGUCCGACGAUCAAGUCCCCAGGUUCUUGUCGUCUUGAUUCCCCUUGACCAGUGGUUCCAGGGAGAAUACUAAUCAGGAAAAGAAUCCCAAGGCUGGUCAUGUAACAGUGACUUGUUUGUGUGAUUAUCAUCCAACAGAGGAUUGAGCAUCA
B15: chr19:58870598:58870599:-_ENSMUSG00000025092_ENSMUST00000066285|mus_mus|motif|central (ssRNA)
RNA: GGGAGUUCUACAGUCCGACGAUCUCUUCGAUUAAUAAUGCAUUUUUGACUCCUGUUUAUAUUGGUGCAUGCAAUUCUUUGCGGCCCUGGCAAUUAACCAGACCUGGACUCUAAAAGCUAAACUUGGUCUAAGUAACAUUCUAACAACAGAGGAUUGAGCAUCA
B16: chr12:41043843:41043844:-_ENSMUSG00000055917_ENSMUST00000069637|mus_mus|motif|central (ssRNA)
RNA: GGGAGUUCUACAGUCCGACGAUCUUUGGAUUUGAACUUUACAUGGCAACUGUAGCACUUGCAUUGGUGAACUUGCCUUCGGAUGAAAUUGACCAGCUUCACUUGCUGAUAGAAAUUUAAUCCAAGCUCUGACUUUAUUCUGAGCAACAGAGGAUUGAGCAUCA
B17: chrX:71549762:71549763:+_ENSMUSG00000019087_ENSMUST00000019231|mus_mus|FALSE|FALSE (ssRNA)
RNA: GGGAGUUCUACAGUCCGACGAUCCCAGUGUACCACUCACUCUUAACACAUCACCCCUCCCCCCCAAAAAACAUAACAGCUAAGCUGGACAGACAGUCAAGUAGUCUUUCCACACCUCGCAAAUUCAAGGAACCUCAAGUUCAUCAACAGAGGAUUGAGCAUCA
B18: chr17:60770872:60770873:+_ENSG00000011028_ENST00000303375|hu_hu|hu_hu_hu_mus_True|8_18 (ssRNA)
RNA: GGGAGUUCUACAGUCCGACGAUCUCUUUAAAAAAAAAAAAAAAAAGACAAACAAUAAUAGCACAUUUCGAGAAUCAAGAACUACAAUAGAGGGUCCGCUUUGAGUUUUUGUUCACAACAUUGUCCCACGCUGUCGCGGGACUGCAACAGAGGAUUGAGCAUCA
B19: chr11:35622686:35622687:-_ENSMUSG00000018848_ENSMUST00000018992|mus_hu|FALSE|FALSE (ssRNA)
RNA: GGGAGUUCUACAGUCCGACGAUCGAAAGCAGUUGCCAGCUCAUAUAUAUAAUCACAGAGAGUGUGGAGAAAUAAGUCAUCUAAAAUCUUUUGCAGAAUCUCAGGGAACCGUAAAAUGCACCGGCCUAGUUUCCAUUCCUUCUCCAACAGAGGAUUGAGCAUCA
B20: 67703826_67704027_1851_CDS_ENSG00000111530_ENST00000544619|human|control|control (ssRNA)
RNA: GGGAGUUCUACAGUCCGACGAUCAAGACAACUGUCUAGAAGUGUGUACAUACACUCAAAUGCUGCCUUUCUAAUAUCCAGACCAUCAUCAACCGUAUGUUUAAAUGGACCCAUUUCUACCUCUCUUAUAAGCUCCUUUCUAACCAACAGAGGAUUGAGCAUCA
B21: chr1:244855233:244855234:+_ENSG00000121644_ENST00000302550|hu_mus|hu_hu_hu_mus_True|38_78 (ssRNA)
RNA: GGGAGUUCUACAGUCCGACGAUCCAUCAGAUGGUAGGCGUUGCCCUUAUACUCUUUUCCCAGUUCUUCUACAAUUUUCUCUAUAUCAUCUUCUAGAAAGUCCGUGCUUCCUAGAACAACAGCUUCUUUAAAUUUAAAUGUUUCCAACAGAGGAUUGAGCAUCA
B22: chr2:120444880:120444881:+_ENSMUSG00000027285_ENSMUST00000124187|mus_mus|motif|central (ssRNA)
RNA: GGGAGUUCUACAGUCCGACGAUCUCACUUGGCCCUGGAGGUUUCGGUGUGAGCCUUAGGAAAAAAAGGUAAAGGAGGCACGGUGUCAAGUUCAUGAAGAUGGCGUUCUUCAGUUAGCAUUUUGGGGAUAUACAAGGAAAUUUCCAACAGAGGAUUGAGCAUCA

Our source for the binding signal values is paper PMC12136788.

The list shows a part of the results.

This experiment deals with T1, UNK ZnF1-3. Put plainly: nsRBNS (natural sequence RNA bind-n-seq); RBNS binding buffer (assumed for nsRBNS): 25 mM Tris pH 7.5, 150 mM KCl, 3 mM MgCl2, 0.01% Triton X-100, 500 ug/ml BSA, 20 U/ml SUPERase-In, 4 C; UNK is unkempt and MSI1 is Musashi-1; names of the RNAs are library labels; protein concentration not given here; high values mean tight binding.
B1 yielded a binding signal of 0 enrichment R.
As for B2, the figure is 1.31 enrichment R; as for B3, 1.67 enrichment R.
B4 returned a binding signal of 2.12 enrichment R.
As for B5, the figure is 1.05 enrichment R; as for B6, 1.17 enrichment R.
As for B7, the binding signal stood at 1.16 enrichment R.
In turn, B8 gave a binding signal of 0.508 enrichment R.
As for B9, the figure is 0.349 enrichment R.
The result for B10 reads 0.811 enrichment R; that for B11, 0.715 enrichment R; that for B12, 0.894 enrichment R.
In turn, B13 had a binding signal of 0.967 enrichment R.
As to B14, the binding signal worked out at 0.706 enrichment R.
As for B15, the figure is 0.971 enrichment R; as for B16, 0.829 enrichment R; as for B17, 1.65 enrichment R.
As for B18, the figure is 2.92 enrichment R; as for B19, 1.69 enrichment R.
The result for B20 reads 1.68 enrichment R.
As for B21, the binding signal worked out at 1.23 enrichment R.
For B22, the binding signal was 1.62 enrichment R.
